The results in this text go back to US11744889B2, “Skin microenvironment targeted delivery for promoting immune and other responses” (University of Pittsburgh—Of the Commonwealth System of …, priority 2016, dated 2023).

Each structure is given as a SMILES string.

The assay addresses T1, NK1R (Homo sapiens, UniProt P25103).
T1 construct: adding SarSP to human mixed leukocyte cultures (MLC) using skin DC as stimulators of allogeneic naïve CD4 T cells; endogenous in cells; host or cells: human skin dendritic cells from skin explants, co-cultured with allogeneic T cells (MLC)
Nature of the assay: T cell stimulatory function of human skin DCs in MLC. The conditions noted are these: L733,060 added in MLC cultures. It counts as cell-based.

T1 sequence (P25103 whole entry): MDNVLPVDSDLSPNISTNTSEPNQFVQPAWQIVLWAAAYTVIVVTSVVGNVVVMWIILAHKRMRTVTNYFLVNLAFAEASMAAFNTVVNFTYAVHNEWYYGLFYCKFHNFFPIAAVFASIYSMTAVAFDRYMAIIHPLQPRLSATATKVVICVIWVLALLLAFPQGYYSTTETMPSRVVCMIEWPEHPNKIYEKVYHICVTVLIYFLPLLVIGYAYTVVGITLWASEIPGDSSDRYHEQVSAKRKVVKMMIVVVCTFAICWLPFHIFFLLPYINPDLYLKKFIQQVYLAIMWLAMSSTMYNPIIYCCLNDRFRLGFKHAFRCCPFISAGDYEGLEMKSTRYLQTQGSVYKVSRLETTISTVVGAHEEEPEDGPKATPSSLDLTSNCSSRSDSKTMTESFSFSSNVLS

For the molecule `FC(F)(F)c1cc(CO[C@H]2CCCN[C@H]2c2ccccc2)cc(C(F)(F)F)c1` [L733,060], the “allogeneic T cell proliferation in response to DC stimulation” value is on record as “significantly reduces allogeneic T cell proliferation”.
